# Source: the supplement of paper PMC8728848
# This is one part of the list.
# What was measured:
# Assay in all cases: glycan array binding signal (z-score within array); higher = stronger binding
# Conditions in all cases: glycan notation: IUPAC condensed, linker removed
# Fuc(a1-2)Gal = molecular target: Fuc(a1-2)Gal
# Method in brief: (§1)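 Columns mapping to the same glycan were averaged after glycan names were converted to IUPAC-condensed notation. The data come from 3228 arrays in the Consortium for Functional Glycomics database, limited to those with an available protein sequence. Binding is reported as a within-array Z-score averaged across arrays of one protein sequence and across linkers.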
# Fuc(a1-2)Gal(b1-3)GalNAc = molecular target: Fuc(a1-2)Gal(b1-3)GalNAc
# Method in brief: as §1
# [1] = molecular target: Fuc(a1-2)Gal(b1-3)GalNAc(a1-3)[Fuc(a1-2)]Gal(b1-4)Glc
# Method in brief: as §1
# [2] = molecular target: Fuc(a1-2)Gal(b1-3)GalNAc(a1-3)[Fuc(a1-2)]Gal(b1-4)GlcNAc
# Method in brief: as §1
# [3] = molecular target: Fuc(a1-2)Gal(b1-3)GalNAc(b1-3)Gal
# Method in brief: as §1
# [4] = molecular target: Fuc(a1-2)Gal(b1-3)GalNAc(b1-3)Gal(a1-4)Gal(b1-4)Glc
# Method in brief: as §1
# [5] = molecular target: Fuc(a1-2)Gal(b1-3)GalNAc(b1-4)[Neu5Ac(a2-3)]Gal(b1-4)Glc
# Method in brief: as §1
# Fuc(a1-2)Gal(b1-3)GlcNAc = molecular target: Fuc(a1-2)Gal(b1-3)GlcNAc
# Method in brief: as §1
# [6] = molecular target: Fuc(a1-2)Gal(b1-3)GlcNAc(b1-2)Man(a1-3)[Fuc(a1-2)Gal(b1-3)GlcNAc(b1-2)Man(a1-6)]Man(b1-4)GlcNAc(b1-4)GlcNAc
# Method in brief: as §1
# [7] = molecular target: Fuc(a1-2)Gal(b1-3)GlcNAc(b1-2)Man(a1-3)[Fuc(a1-2)Gal(b1-3)GlcNAc(b1-2)Man(a1-6)]Man(b1-4)GlcNAc(b1-4)[Fuc(a1-6)]GlcNAc
# Method in brief: as §1
# [8] = molecular target: Fuc(a1-2)Gal(b1-3)GlcNAc(b1-3)Gal(b1-4)Glc
# Method in brief: as §1
# [9] = molecular target: Fuc(a1-2)Gal(b1-3)GlcNAc(b1-3)GalNAc
# Method in brief: as §1
# [10] = molecular target: Fuc(a1-2)Gal(b1-3)GlcNAc(b1-3)[Fuc(a1-2)Gal(b1-3)GlcNAc(b1-6)]GalNAc
# Method in brief: as §1
# [11] = molecular target: Fuc(a1-2)Gal(b1-3)GlcNAc(b1-3)[Gal(b1-4)GlcNAc(b1-6)]Gal(b1-4)Glc
# Method in brief: as §1
# [12] = molecular target: Fuc(a1-2)Gal(b1-3)GlcNAc(b1-3)[Neu5Ac(a2-6)Gal(b1-4)GlcNAc(b1-6)]Gal(b1-4)Glc
# Method in brief: as §1
# [13] = molecular target: Fuc(a1-2)Gal(b1-3)GlcNAc6S
# Method in brief: as §1
# [14] = molecular target: Fuc(a1-2)Gal(b1-3)[Fuc(a1-4)]GlcNAc
# Method in brief: as §1
# [15] = molecular target: Fuc(a1-2)Gal(b1-3)[Fuc(a1-4)]GlcNAc(b1-2)Man(a1-3)[Fuc(a1-2)Gal(b1-3)[Fuc(a1-4)]GlcNAc(b1-2)Man(a1-3)]Man(b1-4)GlcNAc(b1-4)GlcNAc
# Method in brief: as §1
# [16] = molecular target: Fuc(a1-2)Gal(b1-3)[Fuc(a1-4)]GlcNAc(b1-2)Man(a1-3)[Fuc(a1-2)Gal(b1-3)[Fuc(a1-4)]GlcNAc(b1-2)Man(a1-6)]Man(b1-4)GlcNAc(b1-4)[Fuc(a1-6)]GlcNAc(b1-4)[Fuc(a1-6)]GlcNAc
# Method in brief: as §1
# [17] = molecular target: Fuc(a1-2)Gal(b1-3)[Fuc(a1-4)]GlcNAc(b1-3)[Fuc(a1-3)[Gal(b1-4)]GlcNAc(b1-6)]Gal(b1-4)Glc
# Method in brief: as §1
# [18] = molecular target: Fuc(a1-2)Gal(b1-3)[Fuc(a1-4)]GlcNAc(b1-3)[Gal(b1-4)GlcNAc(b1-6)]Gal(b1-4)Glc
# Method in brief: as §1
# Fuc(a1-2)Gal(b1-4)Glc = molecular target: Fuc(a1-2)Gal(b1-4)Glc
# Method in brief: as §1
# Fuc(a1-2)Gal(b1-4)Glc6S = molecular target: Fuc(a1-2)Gal(b1-4)Glc6S
# Method in brief: as §1
# Fuc(a1-2)Gal(b1-4)GlcNAc = molecular target: Fuc(a1-2)Gal(b1-4)GlcNAc
# Method in brief: as §1
# [19] = molecular target: Fuc(a1-2)Gal(b1-4)GlcNAc(b1-2)Man
# Method in brief: as §1
# [20] = molecular target: Fuc(a1-2)Gal(b1-4)GlcNAc(b1-2)Man(a1-3)[Fuc(a1-2)Gal(b1-4)GlcNAc(b1-2)Man(a1-6)]Man(b1-4)GlcNAc(b1-4)GlcNAc
# Method in brief: as §1
# [21] = molecular target: Fuc(a1-2)Gal(b1-4)GlcNAc(b1-2)Man(a1-3)[Fuc(a1-2)Gal(b1-4)GlcNAc(b1-2)Man(a1-6)]Man(b1-4)GlcNAc(b1-4)[Fuc(a1-6)]GlcNAc
# Method in brief: as §1
# [22] = molecular target: Fuc(a1-2)Gal(b1-4)GlcNAc(b1-2)[Fuc(a1-2)Gal(b1-4)GlcNAc(b1-4)]Man(a1-3)[Fuc(a1-2)Gal(b1-4)GlcNAc(b1-2)Man(a1-6)]Man(b1-4)GlcNAc(b1-4)GlcNAc
# Method in brief: as §1
# [23] = molecular target: Fuc(a1-2)Gal(b1-4)GlcNAc(b1-3)Gal(b1-4)GlcNAc
# Method in brief: as §1
# [24] = molecular target: Fuc(a1-2)Gal(b1-4)GlcNAc(b1-3)Gal(b1-4)GlcNAc(b1-2)Man(a1-3)[Fuc(a1-2)Gal(b1-4)GlcNAc(b1-3)Gal(b1-4)GlcNAc(b1-2)Man(a1-6)]Man(b1-4)GlcNAc(b1-4)GlcNAc
# Method in brief: as §1
binder,measurement,setting,value
PX9961V-pdi-562-26-562 (Parabacteroides distasonis) (protein) EIFSEITTDNYYQNSNNIYAALVNNYAKAFSTGWSDARYFLQEVTADQLMIPTRGKHGYNGGEYVRLHEHKWTVEENFVYNGWAAPFQGIALCNNTLSDFENLDFSTFKLTEETKNEYIAELRALRVWNYMFLIDFFRHVPIVTDIEEVKAQSTPLEVFNFMESELLAILPDLPKNRGVSRFDQAGVASILVRLYLNAEKWIGISKYDECEQMAQAILDGKYGEYSIDPDYRGPFRSGINGYRSKENIMEFAIKKNYFEASWLYNMWMHYQDRYSLDNDWQGWNGGNLAPSRDLYGNLYQDKLGMPFEKFPDGDIRKKAFRVISNDGDYEGFFLMGTQYKFDYEKGYGFTDEVITGTEEYNGKPLVYVDQVGRFSEGETGLAKGSHVIYGEENTGYRLIKFPWLPQSKDLFQMNSIPEIRLAEIYYSLAECKYRSGDKIGAARLLDVVRKRYYKAEDWSKFSYESNISKLTDDEFVDELGREFIGERHRRIDLIRWNRFSEGAWWDKTPDATNQDVFPIPYRALNANPLLKQTTAGF,glycan array binding signal (z-score),Fuc(a1-2)Gal,-0.225
same,glycan array binding signal (z-score),Fuc(a1-2)Gal(b1-3)GalNAc,-0.233
same,glycan array binding signal (z-score),[1],-0.31
same,glycan array binding signal (z-score),[2],-0.444
same,glycan array binding signal (z-score),[3],-0.756
same,glycan array binding signal (z-score),[4],-0.062
same,glycan array binding signal (z-score),[5],-0.38
same,glycan array binding signal (z-score),Fuc(a1-2)Gal(b1-3)GlcNAc,-0.423
same,glycan array binding signal (z-score),[6],1.99
same,glycan array binding signal (z-score),[7],-0.047
same,glycan array binding signal (z-score),[8],-0.698
same,glycan array binding signal (z-score),[9],-0.58
same,glycan array binding signal (z-score),[10],2.04
same,glycan array binding signal (z-score),[11],-0.627
same,glycan array binding signal (z-score),[12],-0.196
same,glycan array binding signal (z-score),[13],-0.359
same,glycan array binding signal (z-score),[14],-0.506
same,glycan array binding signal (z-score),[15],-0.178
same,glycan array binding signal (z-score),[16],-0.63
same,glycan array binding signal (z-score),[17],-0.741
same,glycan array binding signal (z-score),[18],-0.054
same,glycan array binding signal (z-score),Fuc(a1-2)Gal(b1-4)Glc,-0.419
same,glycan array binding signal (z-score),Fuc(a1-2)Gal(b1-4)Glc6S,-0.072
same,glycan array binding signal (z-score),Fuc(a1-2)Gal(b1-4)GlcNAc,-0.392
same,glycan array binding signal (z-score),[19],-0.572
same,glycan array binding signal (z-score),[20],0.815
same,glycan array binding signal (z-score),[21],-0.251
same,glycan array binding signal (z-score),[22],-0.54
same,glycan array binding signal (z-score),[23],-0.495
same,glycan array binding signal (z-score),[24],0.011
